Laboratory results from the supplement of paper PMC3334620.
Whole data set: some 33,000 sequences, median “E-score (-0.5 to 0.5)” near -0.016, cut for the highest 2% near 0.32. The list shows a part of the results.

The sequences below were run against T1, Stp1 (UniProt B3LFK1) (assay: PBM E-score (8-mer binding enrichment) (E-score (-0.5 to 0.5)); higher = stronger / more preferred TF binding; most listed sequences are background and not binding sites). Conditions: protein concentration: 200 nM; construct: GST-full length.
T1 sequence: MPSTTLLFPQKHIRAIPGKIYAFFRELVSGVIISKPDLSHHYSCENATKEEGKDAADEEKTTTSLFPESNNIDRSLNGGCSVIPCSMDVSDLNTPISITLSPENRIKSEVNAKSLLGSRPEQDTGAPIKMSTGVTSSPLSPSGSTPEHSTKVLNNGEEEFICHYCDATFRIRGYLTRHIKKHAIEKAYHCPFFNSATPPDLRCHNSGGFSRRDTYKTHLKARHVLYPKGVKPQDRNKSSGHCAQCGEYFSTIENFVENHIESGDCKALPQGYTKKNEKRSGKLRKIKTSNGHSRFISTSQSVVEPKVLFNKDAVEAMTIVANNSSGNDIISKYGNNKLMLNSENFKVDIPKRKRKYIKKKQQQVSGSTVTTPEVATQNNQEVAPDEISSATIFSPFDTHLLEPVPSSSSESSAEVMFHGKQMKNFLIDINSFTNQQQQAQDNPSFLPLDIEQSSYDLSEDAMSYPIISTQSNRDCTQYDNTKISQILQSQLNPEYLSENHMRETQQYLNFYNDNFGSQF
In short: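 E-scores (a modified Wilcoxon-Mann-Whitney statistic) were assigned by the Universal PBM Analysis Suite to every ungapped eight-base word pooled with its reverse complement. The input came from universal all-10-mer Agilent arrays made double-stranded by primer extension and probed with GST-tagged yeast transcription factors at about 100-200 nM. Fluorescent anti-GST detected bound protein, and masliner normalised the scans.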

Sequence	PBM E-score
GCTATAAA	0.0824
GTTGTTAA	0.109
ATCGATAA	-0.084
ACCCGTGG	-0.0825
GTTTTGGA	0.0738
CTCGACAA	-0.0792
CAATATGG	0.033
AACCTACG	0.0166
ACACGGAA	0.188
AGGCTTTA	0.0579
CGGGCAAA	-0.0468
CAGAGCCA	-0.148
ATAGATGA	0.0525
ATCCTTAC	0.0152
ATATACAG	0.127
ATGTTACA	0.182
CCAGATTA	0.086
ACCCCTTG	-0.422
ACTAGTTC	-0.16
GGTTAGTA	-0.0242
AAAAGTAC	0.108
ATCTGCAG	0.0578
CGCAGTAA	0.0664
GCAGCTAA	0.0715
GAAATTAC	0.151

Sequence	PBM E-score
GCAGTCTA	-0.0152
GCATCGTA	-0.00841
AGTTCGGG	-0.0421
CACTGTTC	-0.0611
TAAGTTCA	-0.0134
CTAGCAGC	-0.166
GCGAACGC	0.0627
CAGCTTGC	-0.108
AAGCTTTC	0.138
ACGCCTAT	0.0662
TCGACTCA	-0.163
CAAGCCGG	-0.00046
CGCGACCG	0.161
GAGAGCGC	-0.0618
ACGGGCGG	-0.0632
AAGTTTCT	0.0419
ATCCGTCA	-0.0596
TCAGCAAA	0.0382
ATTTCCTA	0.119
ACTAAGGA	-0.105
ATTAGAGC	0.0403
ACATCGAT	-0.0129
TACTCAGA	0.0701
GACACGCC	0.105
AGCTGGTA	-0.238

Sequence	PBM E-score
CTCAGTCA	-0.21
GGAAATTA	0.15
CTGACTGC	-0.203
GTGGAGGA	0.0309
GAGCCAGA	-0.0879
GAGAGCCC	-0.302
ACAGTCTG	-0.292
CCGTCAAA	0.0837
GATTTGAA	0.113
TCGCCCGA	-0.166
CGGATAGC	0.0299
ACATACCG	0.0383
AGCATCAT	-0.18
AGCTCGCA	-0.077
GACCACTC	-0.127
CAAATTTC	0.117
TACGATAA	0.0983
AACTCGCT	-0.0606
CTAGGCAC	0.0688
GTACCTCA	-0.0688
AAAGGAAG	0.0109
GCCTGATA	-0.0575
CTCGCGAA	-0.0832
GCCCCTGA	-0.137
AACTTGCA	0.0268

Sequence	PBM E-score
ACGGTTTG	-0.00944
CGGGATCC	0.0611
CTTTACTA	0.193
CCGTGAAA	0.183
CCTCTTCA	-0.00988
ATAAGTAA	0.118
ATAAATAA	0.302
CAATGGAA	0.0796
GTGAGCCA	0.00543
CCGGTCCC	-0.22
ATTACGAG	0.0563
TCGTCACA	0.0525
AGAAAAAC	0.0418
CTCTTAGA	0.015
CACATGCG	0.0837
ACATCATA	-0.0287
CCATCCCC	-0.148
AGATTATG	0.0136
AATTAGCC	0.136
AGCGTGGG	-0.291
GGCCACGA	0.0462
CCCACTGC	0.0181
CAGCCCAA	-0.106
TAGCTCCA	-0.0885
CGAACCGA	0.101

Sequence	PBM E-score
AGTGGCGG	-0.0409
TCGTGCCA	0.177
CAGGGACG	-0.108
TCGGCCAA	-0.055
CGAATGGC	0.181
CACTAGCA	-0.182
ATGGGCTG	-0.25
AGATACGA	0.0642
TACCAAAA	0.11
CATTCTTC	-0.0959
GTAACGAC	0.0501
AACTAAAT	0.0174
ACAGGCCC	-0.35
AATCACCA	0.0585
CCACTTTC	-0.21
CCTTTGAA	-0.0337
CATAGTAA	0.108
TCGCCACA	0.21
CGTGATTC	-0.0502
ACGGGGGC	-0.325
ACTATCAC	-0.0551
AAGGTACT	-0.0149
CTGTGGCA	0.0462
TAGATCCA	0.0726
GGGGCCGA	-0.309

Sequence	PBM E-score
CAAAGTGC	0.106
GATCCTAC	-0.1
CGCCACAA	0.115
ACTCCCCT	-0.277
ATCGCGAT	0.171
CCAGACAG	-0.13
TGGTGACA	-0.0418
CGCTGGTC	-0.169
ATCTCTGG	-0.258
AGGTGTAA	0.0291
CATATATC	0.0255
AAGTACCC	-0.132
GAGGCGGA	-0.00688
CCAACAGC	-0.0402
ACTCGTAA	0.115
CCTGTTAG	0.0323
ATCTGGCG	-0.0788
CGTGAATA	0.0929
GACCTTAC	0.0257
AACGTCCA	-0.0451
AAGATCTA	-0.146
CGGATTAG	0.0588
GCGGCTGA	0.0916
TCCGCAAA	0.015
ATTGGCGG	-0.156

Sequence	PBM E-score
CGGAAGCA	0.153
ACCCCAAG	-0.104
ATCGGACA	-0.0855
CCCTATAC	-0.168
CCCGGTGC	-0.17
ATGGAGCG	0.19
ATCTAACA	-0.0427
CCAACGGC	0.316
GGGAAGGA	-0.233
CGGCGGTA	0.335
GTTATAGA	0.182
AAAAAATG	0.218
TAGTGAGA	0.081
AACTCACG	0.142
GGAGTCCC	-0.259
TAGTTCAA	0.0302
CCTATACG	-0.0105
AGTGGTCG	-0.236
CATATGAG	0.0378
TAGCCTAA	-0.0614
ACTGGTGC	0.279
GAGGCGGC	0.374
